Test [1] addresses T1, BCMA expressed endogenously on U266 and H929 cells (UniProt Q02223 1-184, limits assumed).
T1 construct: whole, on cells; The cell line (U266 or H929) is named under assay in each row; also called B cell maturation antigen; CD269
T1 sequence (looked up): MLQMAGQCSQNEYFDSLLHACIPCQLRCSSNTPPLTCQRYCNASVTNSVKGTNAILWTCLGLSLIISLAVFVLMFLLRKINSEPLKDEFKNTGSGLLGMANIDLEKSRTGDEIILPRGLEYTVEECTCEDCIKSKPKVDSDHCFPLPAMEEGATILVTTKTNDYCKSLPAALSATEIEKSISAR
The test can be described thus: FACS on H929 cells. On the procedure:
(§1) The desired cells were scale-up cultured in T-75 cell culture flasks to the logarithmic growth phase, and the cells were pipetted into a single cell suspension. After the cells were counted, the cells were centrifuged and the cell pellet was resuspended in FACS buffer (PBS+2% fetal calf serum) to 2×10⁶ cells per ml, and the suspension was added to the 96-well FACS reaction plate at 50 μl per well, then the sample to be tested of the chimeric antibody was added at 50 μl per well and the mixture was incubated at 4° C. for 1 h. The obtained mixture was centrifuged and washed 3 times with a PBS buffer. […] The obtained mixture was centrifuged and washed 3 times with a PBS buffer. 100 μl of the mixture was taken for detection and result analysis by FACS (FACS Canto™, purchased from BD Company). Data analysis was performed by software (FlowJo) to obtain the mean fluorescence intensity (MFI) of the cells. Then, a software (GraphPad Prism8) was used for analysis, data fitting and EC50 calculation. The results are shown in Table 10 and FIGS. 10A-10B, FIGS. 11A-11B, and FIGS. 12A-12B. All seven chimeric antibodies bind to three types of BCMA-expressing endogenous cells.
(§2) The specific method was the same as that in Example 5 (C). First, the binding of humanized antibodies to U266 cells was detected. Based on the results, some humanized antibodies were selected and tested for binding to H929 cells. The remaining humanized antibodies were not tested for binding to H929 cells by FACS (indicated by “/” in the table). All humanized antibodies bind to U266 cells, and all humanized antibodies that bind to the H929 cell in the test bind to H929 cells.

Test [2] deals with T1, BCMA expressed endogenously on U266 and …. The test is described as follows: FACS on U266 cells. The procedure:
as §1, §2

Changes are numbered by the printed parent chain.

B1: BCMA-05 VL3VH1 (Fc fusion)
scFv: EVQLVQSGAEVKKPGSSVKVSCKASGYMFTDHTFHWVRQAPGQGLEWMGYIYPRDDNTKYNEKFKGRVTITADKSTSTAYMELSSLRSEDTAVYYCARAGYYGSSHAMDYWGQGTTVTVSSGGGGSGGGGSGGGGSDIVMTQSPDSLAVSLGERATINCKASQDVSTAVAWYQQKPGQSPRLLIYSASSRYTGVPDRFSGSGSGTDFTLTISSLQAEDVAVYYCQQLYSTPWTFGGGTKVEIK[human IgG1 Fc with C220S (EU numbers) not spelt out]
notes: humanized scFv-Fc
Broadly, the EC50 is the concentration giving half of the maximal effect. The low end stands for a more potent agent, the high end for a less potent agent. As to B1, the results for the EC50 in test [1] and in test [2] were 15.1 nM and 17.2 nM, respectively. The “Maximum mean fluorescence intensity” value in test [1] is 12000; in test [2], 1790.

B2: BCMA-05 VL3VH2 (Fc fusion)
scFv: B1 scFv with V2G, L4M
notes: humanized scFv-Fc
Regarding B2, in test [1], the response was half-maximal at 20.4 nM (EC50) and the “Maximum mean fluorescence intensity” value was determined as 13400. Further, in test [2], a half-maximal effect (EC50) was put at 34.5 nM and the “Maximum mean fluorescence intensity” value is 2170.

B3: BCMA-05 VL3VH4 (Fc fusion)
scFv: B1 scFv with I70L
notes: humanized scFv-Fc
For B3, in test [1], it took 27.8 nM to reach a half-maximal effect (EC50) and the “Maximum mean fluorescence intensity” value was 12900. In test [2], the concentration giving a half-maximal response (EC50) is 22 nM and the “Maximum mean fluorescence intensity” value was determined as 2000.

B4: BCMA-05 VL3VH3 (Fc fusion)
scFv: B1 scFv with V37M
notes: humanized scFv-Fc
Turning to B4, the values for the EC50 in test [1] and in test [2] were 14.8 nM and 24.1 nM, respectively. Moreover, the “Maximum mean fluorescence intensity” value in test [1] amounted to 13600; in test [2] it was 2270.

B5: BCMA-07 VL2VH1 (Fc fusion)
scFv: EVQLVQSGAEVKKPGSSVKVSCKASGYTFTDYWTHWVRQAPGQGLEWMGYINHGSGYTKYNQKFKDRVTITADKSTSTAYMELSSLRSEDTAVYYCARLTGSYYFDYWGQGTTVTVSSGGGGSGGGGSGGGGSDIQMTQSPSSLSASVGDRVTITCSASSSVSYMHWYQQKPGKSPKRWIYDTSKLASGVPSRFSGSGSGTEFTLTISSLQPEDFATYYCQQWSSNPLTFGQGTKLEIK[human IgG1 Fc with C220S (EU numbers) not spelt out]
notes: humanized scFv-Fc
Take B5: in test [1], a half-maximal response (EC50) required 134 nM and the “Maximum mean fluorescence intensity” value is 32500.

B6: BCMA-01 VL1VH3 (Fc fusion)
scFv: EVKLVESGGGLVQPGGSLRLSCAASGFTFSDFYMYWVRQAPEKRLEWVAYITNGGENTYFPDTVKGRFTISRDNAKNSLYLQMNSLRAEDTAVYYCARQNPFYYYDSNYDYAMDFWGQGTTVTVSSGGGGSGGGGSGGGGSDVVMTQSPLSLPVTLGQPASISCKSSQSLLYSNGKTYLSWLFQRPGQSPRRLIYLVSELDSGVPDRFSGSGSGTDFTLKISRVEAEDVGVYYCVQGTHFPHTFGGGTKVEIK[human IgG1 Fc with C220S (EU numbers) not spelt out]
notes: humanized scFv-Fc
Take B6: in test [2], a half-maximal effect (EC50) was put at 13.8 nM and the “Maximum mean fluorescence intensity” value stood at 4000.

B7: BCMA-04 VL2VH2 (Fc fusion)
scFv: EVQLVQSGAEVKKPGSSVKVSCKASGYSFTSYGISWVRQAPGQGLEWMGEIYPRDDITYYNEKFKGRVTITADKSTSTAYMELSSLRSEDTAVYYCARHDYYYVNSVSAMDYWGQGTTVTVSSGGGGSGGGGSGGGGSDIQMTQSPSSLSASVGDRVTITCKSSQSLLYSSNQKNYLAWYQQKPGKSPKLLIYWASTRYSGVPSRFSGSGSGTDFTLTISSLQPEDFATYYCQQYYIYPWTFGGGTKVEIK[human IgG1 Fc with C220S (EU numbers) not spelt out]
Regarding B7, the EC50 was found to be 21.2 nM in test [1] and 17.3 nM in test [2]. For the same molecule, the figures for the “Maximum mean fluorescence intensity” value in test [1] and in test [2] were 3460 and 3530, respectively.

B8: BCMA-04 VL2VH5 (Fc fusion)
scFv: B7 scFv with Q39L
notes: humanized scFv-Fc
With B8, in test [2], the EC50 was determined as 23.9 nM and the “Maximum mean fluorescence intensity” value came to 3350.

B9: BCMA-04 VL2VH4 (Fc fusion)
scFv: B7 scFv with V5Q
As to B9, in test [2], the EC50 worked out at 23.2 nM and the “Maximum mean fluorescence intensity” value was 3490.

B10: BCMA-04 VL2VH1 (Fc fusion)
scFv: B7 scFv with S28T, T30S
Regarding B10, in test [2], the midpoint of the response, the EC50, lay at 14.4 nM and the “Maximum mean fluorescence intensity” value worked out at 3600.

B11: BCMA-03 VL2VH2 (Fc fusion)
scFv: EVQLVQSGSELKKPGASVKVSCKASGYTFTNYAMTWVRQAPGQGLEWMGWIDTYSGVPTYADDFKGRFVFSLETSASTAYLQISSLKAEDTAVYYCARVGVYGGYDTLDSWGQGTTVTVSSGGGGSGGGGSGGGGSDIQMTQSPSSLSASVGDRVTITCSASQGISNHLNWYQQKPDKTVKLLIYYTSSLHSGVPSRFSGSGSGTDFTLTISSLQPEDFATYYCQQYNNLPWTFGGGTKVEIK[human IgG1 Fc with C220S (EU numbers) not spelt out]
notes: humanized scFv-Fc
For B11, in test [2], the response was half-maximal at 17.6 nM (EC50) and the “Maximum mean fluorescence intensity” value is 3360.

B12: BCMA-03 VL3VH1 (Fc fusion)
scFv: B11 scFv with E73D, A76V, K178G
notes: humanized scFv-Fc
Take B12: in test [2], the midpoint of the response, the EC50, lay at 19.7 nM and the “Maximum mean fluorescence intensity” value is 3350.

B13: BCMA-03 VL2VH1 (Fc fusion)
scFv: B11 scFv with E73D, A76V
notes: humanized scFv-Fc
With B13, in test [2], the EC50 was 22.3 nM and the “Maximum mean fluorescence intensity” value was 3320.

B14: BCMA-03 VL1VH1 (Fc fusion)
scFv: B11 scFv with E73D, A76V, D177G, T179A
notes: humanized scFv-Fc
For the molecule B14, in test [2], the response was half-maximal at 46.5 nM (EC50) and the “Maximum mean fluorescence intensity” value was found to be 3370.

B15: BCMA-03 VL3VH2 (Fc fusion)
scFv: B11 scFv with K178G
notes: humanized scFv-Fc
Regarding B15, in test [2], the EC50 came out at 17.7 nM and the “Maximum mean fluorescence intensity” value worked out at 3330.

B16: BCMA-03 VL3VH3 (Fc fusion)
scFv: B11 scFv with Q3P, K178G
notes: humanized scFv-Fc
Turning to B16, in test [2], a half-maximal effect (EC50) was put at 20.8 nM and the “Maximum mean fluorescence intensity” value was determined as 3390.

B17: BCMA-03 VL1VH3 (Fc fusion)
scFv: B11 scFv with Q3P, D177G, T179A
notes: humanized scFv-Fc
Consider B17, for which, in test [2], a half-maximal response (EC50) required 20.7 nM and the “Maximum mean fluorescence intensity” value stood at 3500.

B18: BCMA-03 VL1VH2 (Fc fusion)
scFv: B11 scFv with D177G, T179A
notes: humanized scFv-Fc
On to B18, for which, in test [2], a half-maximal effect (EC50) was put at 30.3 nM and the “Maximum mean fluorescence intensity” value was 3300.

B19: BCMA-03 VL2VH3 (Fc fusion)
scFv: B11 scFv with Q3P
notes: humanized scFv-Fc
As for B19, in test [2], a half-maximal response (EC50) required 18.9 nM and the “Maximum mean fluorescence intensity” value came to 3390.

B20: BCMA-04 VL1VH2 (Fc fusion)
scFv: EVQLVQSGAEVKKPGSSVKVSCKASGYSFTSYGISWVRQAPGQGLEWMGEIYPRDDITYYNEKFKGRVTITADKSTSTAYMELSSLRSEDTAVYYCARHDYYYVNSVSAMDYWGQGTTVTVSSGGGGSGGGGSGGGGSDIVMTQSPDSLAVSLGERATINCKSSQSLLYSSNQKNYLAWYQQKPGQSPKLLIYWASTRYSGVPDRFSGSGSGTDFTLTISSLQAEDVAVYYCQQYYIYPWTFGGGTKVEIK[human IgG1 Fc with C220S (EU numbers) not spelt out]
As for B20, in test [2], the EC50 was determined as 43.7 nM and the “Maximum mean fluorescence intensity” value is 3000.

B21: BCMA-04 VL1VH5 (Fc fusion)
scFv: B20 scFv with Q39L
notes: humanized scFv-Fc
On to B21, for which, in test [2], the midpoint of the response, the EC50, lay at 36.1 nM and the “Maximum mean fluorescence intensity” value was determined as 3080.

B22: BCMA-04 VL1VH1 (Fc fusion)
scFv: B20 scFv with S28T, T30S
As for B22, in test [2], the EC50 was found to be 62.8 nM and the “Maximum mean fluorescence intensity” value turned out to be 2980.

B23: BCMA-04 VL1VH4 (Fc fusion)
scFv: B20 scFv with V5Q
B23: in test [2], the EC50 was found to be 39.1 nM and the “Maximum mean fluorescence intensity” value turned out to be 3150.

B24: BCMA-04 VL1VH3 (Fc fusion)
scFv: B20 scFv with I70L
As for B24, in test [2], the EC50 was found to be 66.5 nM and the “Maximum mean fluorescence intensity” value was determined as 2970.

These data come from patent US20250297021A1 (SHANDONG SIMCERE BIOPHARMACEUTICAL CO NO 1, published 2025).
